Measured values reported in PubChem BioAssay AID1508624 (National Center for Advancing Translational Sciences (NCATS), 2021).
Out of some 48,000 compounds screened, about 120 (0.25%) were called active. Another 4% or so got no clear call; they are omitted. Calls come from the whole dose curve; as a rule, active = well fitted activation curve with a large enough effect; inconclusive = small, poorly fitted or top-dose-only effect, or another doubt; inactive = no such curve, though single readings can be large or run the other way. The list shows a part of the results.

Assay: Primary qHTS for Identification of Small Molecule Activators of Huntingtin-Antisense Promoter Activity; note: nearly all actives have a fitted effect of over 55% in size
Conditions: HEK293 HTT-AS promoter firefly luciferase reporter, 24 h; series mostly up to 57.5 µM; activity change, positive = activation: at the top concentration
Method in brief: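 HEK293 Fluc reporter, 2,500 cells/well, 24 h pre-culture; cpds up to 57.5 uM final, 24 h 37 degrees C; Dual-Glo, 10 min RT; normalized vehicle = 0%, zero RLU = -100%.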

| SMILES | activity change, positive = activation |
| --- | --- |
| Cc1cccc(N(CC(=O)NCc2ccccc2)S(C)(=O)=O)c1C | inactive: 20.2% [at 11.5 µM, percent change from vehicle, -100% = no light] |
| Cc1ccc(C)c(NC(=O)Cn2cnc3c(oc4ccccc43)c2=O)c1 | inactive: -14.1% |
| O=C(Nc1ccc(OCc2cc(=O)n3ccsc3n2)cc1)c1ccc(F)cc1 | inactive: -8.83% |
| Cc1nnc(N2CCC(C(=O)NCCc3ccccc3)CC2)c2nn(-c3ccccc3)c(C)c12 | inactive: -10.7% |
| COc1ccc(CNC(=O)CSCc2nc(-c3ccccc3F)oc2C)cc1 | inactive: -15.5% |
| CCc1ccc(-c2nc(CN3CCC(C(=O)NCCc4ccc(C)cc4)CC3)c(C)o2)cc1 | inactive: -6.19% |
| C=CC(=O)Nc1cc(NC(=O)c2ccc(C)c(NC(=O)c3ccno3)c2)cc(C(F)(F)F)c1 | inactive: -28.1% |
| COc1ccc(NC(=O)C(c2ccccc2)N2Cc3ccccc3C2=O)cc1 (centres undefined) | inactive: -3.19% |
| Cc1cc(C)c2c(=O)cc(C(=O)Nc3ccc(C)c(Cl)c3)oc2c1 | inactive: 6.37% [at 11.5 µM, percent change from vehicle, -100% = no light] |
| Cc1ccc(C)c(NC(=O)CSc2nnc(NC(=O)Nc3ccccc3)s2)c1 | inactive: 2.83% |
| CCN1CCN(Cc2nc3cc(NC(=O)c4cccc([N+](=O)[O-])c4)ccc3n2CC)CC1 | inactive: -5.5% |
| COc1ccc(C2CC(=O)Nc3cc4c(cc32)OCO4)c(OC)c1 (centres undefined) | inactive: -41.2% |
| CCc1ccc(NC(=O)Cn2c(C(=O)OC)cc3oc(C)cc32)cc1 | inactive: -10.6% |
| CCOC(=O)N1CCC(NC(=O)c2ccc3c(c2)N(Cc2ccc(F)cc2)C(=O)c2ccccc2S3=O)CC1 (centres undefined) | inactive: -40.1% |
| COc1ccc(CCNC(=O)c2nc(SCc3ccc(F)cc3)ncc2Cl)cc1OC | inactive: -38.5% |
| Cc1ccc(CCNC(=O)C(C)n2nc(C)c3c(C)n(-c4ccc(C)cc4)nc3c2=O)cc1 (centres undefined) | inactive: -48% |
| CCCCCCC(=O)Nc1cc2nc3c(nc2cc1C)c(=O)n(C)c(=O)n3C | inactive: 4.53% |
| COc1ccc(NC(=O)CN2CCN(C3CCCCC3)C(=O)C2=O)cc1 | inactive: -8.5% |
| CCc1ccc(C2CC(=O)c3c([nH]c(C(=O)OC4CCCCCC4)c3C)C2)cc1 (centres undefined) | inactive: -12.1% |
| CCOC(=O)c1c(C)[nH]c(C)c1S(=O)(=O)NCC(=O)Nc1cc(Cl)ccc1OC | inactive: 2.22% |
| CC(C)C[C@H](CC(=O)O)C(=O)N[C@@H](Cc1c[nH]c2ccccc12)C(=O)N[C@@H](C)c1ccccc1 | inactive: -9.91% |
| CC(=O)c1ccc(NC(=O)COc2ccccc2-c2nc(C(C)C)no2)cc1 | inactive: -7.36% |
| CCOC(=O)C1CCN(S(=O)(=O)c2cc(-c3cc(C)no3)ccc2OC)CC1 | inactive: -11.2% |
| COc1ccc(C)cc1Nc1c2c(nc3ccccc13)CCC2 | inactive: -44.1% |
